In PubChem BioAssay AID686978 (National Center for Advancing Translational Sciences (NCATS), 2013):
Several values for one entry are separate records, joined by “and”; a condition that tells them apart may be missing. Identical values can stand only once. Screen size: about 420,000 compounds; about 64,000 (15%) were called active. This list was built around the results that the source calls inconclusive (neither active nor inactive); the mix of calls is not that of the screen. The call rests on the fitted dose curve; in most records, active means well fitted inhibition curve with a large enough effect; inconclusive means small, poorly fitted or top-dose-only effect; inactive means flat fitted curve, though single readings scatter. Where the call is inconclusive, the potency comes from a doubtful curve fit.

assay: qHTS for Inhibitors of human tyrosyl-DNA phosphodiesterase 1 (TDP1): qHTS in cells in absence of CPT; details: DT40 Tdp1-/- hTDP1 cells, no CPT, ATP luminescence, 48 h; activity change, negative = growth inhibition: at 46.2 µM (top of the series); further: nearly all actives have a fitted effect of over 55% in size
Method in brief: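 Readout: luminescence from CellTiter-Glo after 30 min in the dark at RT. Cells: DT40 Tdp1-/- with stable hTDP1, 400/well. Exposure: compounds alone, ≥48 hr, 37 °C.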
On the % scale 0 is the no-effect control and ±100 the full control effect; potency means the concentration at half of the fitted maximal effect; tags describe the fitted curve by direction and shape.

Row | Compound | Potency | activity change, negative = growth inhibition
1 | CCOC(=O)c1c(C)oc2nc(C)nc(NCc3ccccc3Cl)c12 | inconclusive: 25.9 µM [inhibitor, single point] | –
2 | Clc1cccc(Cc2c(-c3cccc(Cl)c3)nc3ccc(Cl)cn23)c1 | inconclusive: 23.1 µM [inhibitor, single point] | –
3 | COc1ccc(CCNC(=O)c2cccc(S(=O)(=O)N3CCCC3)c2)cc1OC | inconclusive: 23.1 µM [inhibitor, partial curve] | –
4 | COC(=O)c1ccccc1NC(=O)Cn1cc(S(=O)(=O)Cc2ccccc2F)c2ccccc21 | active: 20.6 µM | –
5 | Cc1cc([N+](=O)[O-])nn1CC(=O)N/N=C/c1ccc(O)cc1O | active: 6.51 µM | –
6 | Cc1ccccc1CSc1nnc(-c2cnccn2)n1C | – | inactive: -16.4%
7 | COc1ccccc1NC(=O)C(C)Sc1nnc2ccccn12 (stereo not given) | inconclusive: 6.51 µM [inhibitor, single point] | –
8 | COc1cc(N=C2C(=O)N3CCCc4cccc2c43)cc(OC)c1 | inconclusive: 10.3 µM [inhibitor, partial curve] | –
9 | NC(=O)CC(NC(=O)Cc1ccc(Cl)cc1)c1ccc(NC2CCCCC2)c([N+](=O)[O-])c1 (stereo not given) | inconclusive: 29.1 µM [inhibitor, single point] | –
10 | O=c1c(C=Nc2ccc(Oc3ccccc3)cc2)c[nH]n1-c1cccc(Cl)n1 | inconclusive: 29.1 µM [inhibitor, single point] | –
11 | COc1cc(C(=O)OCc2ccccc2C#N)ccc1OCC(=O)N1CCOCC1 | – | inactive: 11.8%
12 | COc1cc2c(-c3cc(F)cc(F)c3)c(-c3ccsc3)oc(=O)c2cc1OC | inconclusive: 11.6 µM [inhibitor, partial curve] | –
13 | CC(C)(C)N(Cc1cc2ccccc2[nH]c1=O)C(=O)c1ccco1 | inconclusive: 14.6 µM [inhibitor, partial curve] | –
14 | Cc1ccc(S(=O)(=O)c2cnc(SCC(=O)Nc3cc(C)cc(C)c3)nc2N)cc1 | active: 16.4 µM | –
15 | Cc1cccc(OCc2ccc(-c3nc(C#N)c(NCCN(C)C)o3)o2)c1 | inconclusive: 18.4 µM [inhibitor, single point] | –
16 | Cc1cc(Nc2ccc(C)c(C)c2)n2cnnc2n1 | – | inactive: -21.2%
17 | CN(CCc1ccccn1)Cc1ccc(Cl)cc1 | – | inactive: -8.8%
18 | Clc1ccc2oc(-c3ccccn3)nc2c1 | inconclusive: 14.6 µM [inhibitor, single point] | –
19 | CCCN(CCC)C(=O)CSc1nnc2cc(C)c3cc(C)cc(C)c3n12 | inconclusive: 18.4 µM [inhibitor, single point] | –
20 | O=C(NC1CCCC1)c1ccc(CS(=O)(=O)c2ccc(Cl)cc2)o1 | – | inactive: -11.3%
21 | Cc1cc(S(=O)(=O)Nc2ccc(N3CCOCC3)cc2)ccc1Br | inconclusive: 14.6 µM [inhibitor, partial curve, poor fit] | –
22 | CCCNC(=O)c1ccc2c(c1)C1C3CCC(C3)C1C(c1ccccc1)N2 (stereo not given) | inconclusive: 23.1 µM [inhibitor, single point] | –
23 | O=S(=O)(Nc1nc(SCc2ccc(Cl)cc2)n[nH]1)c1ccccc1 | inconclusive: 16.4 µM [inhibitor, single point] | –
24 | C[C@H](O)Cc1cn(-c2cc3cc(C#Cc4ccsc4)ccc3oc2=O)nn1 | – | inactive: -2.7%

Row | Compound | Potency | activity change, negative = growth inhibition
25 | Oc1ccc(C[C@H]2CN([C@@H](Cc3ccccc3)CN3CCC[C@@H]3CN3C(=S)NC[C@@H]3Cc3ccccc3)C(=S)N2CC2CCCCC2)cc1 | active: 25.9 µM | –
26 | CSc1nc2ccc(Cl)cc2[nH]1 | inconclusive: 20.6 µM [inhibitor, single point] | –
27 | CCN(CC)c1ccc(NC(=O)c2ccccc2F)cc1S(=O)(=O)Nc1ccccc1OC | inconclusive: 23.1 µM [inhibitor, single point] | –
28 | Cc1ccc(S(=O)(=O)N2C[C@H]3N(C(=O)OC(C)C)N(C(=O)OC(C)C)C[C@H](OC(=O)Nc4c(C)noc4C)[C@@]3(O)C2)cc1 | inconclusive: 25.9 µM [inhibitor, single point] | –
29 | CCOC(=O)c1c(NC(=O)COc2ccccc2F)sc2c1CCCC2 | inconclusive: 29.1 µM [inhibitor, single point] | –
30 | Cc1cccc2nc(-c3ccccc3)nc(N3CCC(O)(c4ccc(Cl)cc4)CC3)c12 | inconclusive: 11.6 µM [inhibitor, partial curve, poor fit] | –
31 | COc1ccc2nc(SCC(=O)Nc3ccc4c(c3)CCC4)[nH]c2c1 | inconclusive: 29.1 µM [inhibitor, single point] | –
32 | CCc1ccc(OCC(=O)NNCC(=O)Nc2ccc(OC)cc2)cc1 | inconclusive: 18.4 µM [inhibitor, single point] | –
33 | Cc1cccc(CN2C(=O)c3ccccc3Sc3ccc(C(=O)N4CCCC4)cc32)c1 | inconclusive: 29.1 µM [inhibitor, partial curve, poor fit] | –
34 | O=C(CSc1nnc(C2CC2)n1-c1ccccc1)NCCc1ccccc1 | – | inactive: -23.7%
35 | COCCN1C(=O)c2[nH]nc(-c3ccccc3O)c2C1c1ccc(OCc2ccccc2)c(OC)c1 (stereo not given) | active: 8.2 µM | –
36 | Cc1oc2cc3oc(=O)c(CCC(=O)NCc4ccccn4)c(C)c3cc2c1C | – | inactive: -86.5%
37 | CCOc1ccc(CCN2C(=O)c3cccnc3C2=O)cc1OCC | – | inactive: -19.1%
38 | Cc1ccc(CNC(=O)CSc2ccsc2[N+](=O)[O-])cc1 | active: 10.3 µM | –
39 | CCN(CC)c1ccc(/C=N/NC(=O)c2nnn(-c3nonc3N)c2CN(C)C2CCCCC2)cc1 | inconclusive: 0.231 µM [inhibitor, full curve] | –
40 | CCCN(CC(=O)Nc1ccccc1OC)C(=O)c1ccc(S(=O)(=O)Nc2ccccc2)cc1 | inconclusive: 11.6 µM [inhibitor, partial curve, poor fit] | –
41 | CC(C)c1nc2oc3c(NCc4cccnc4)ncnc3c2c2c1CCC2 | inconclusive: 29.1 µM [inhibitor, single point] | –
42 | CN(C)S(=O)(=O)c1cccc(NC(=S)NC(=O)C2CCCCC2)c1 | active: 18.4 µM | –
43 | CCc1ccc(N(CC)C(=O)c2ccc3c(=O)n4c(nc3c2)CCCCC4)cc1 | active: 16.4 µM | –
44 | COC(=O)c1c(C(=O)OC)c(-c2cccc(C)c2)n2c1CS(=O)C2 (stereo not given) | – | inactive: -0.626%
45 | CCCCN1C(=O)Cc2c1nc(N)c1c(N)nc(N(CCC)CCC)c(C#N)c21 | – | inactive: -8.74%
46 | c1cc2c3c(cccc3c1)NC1(CCC3(CC1)Nc1cccc4cccc(c14)N3)N2 | active: 13 µM | –
47 | C=CCNC(=O)c1c(CSc2ccc(Cl)cc2)noc1C(=O)NCCC | inconclusive: 29.1 µM [inhibitor, single point] | –
48 | COc1ccc(S(=O)(=O)N(C)CC(=O)Nc2cccc(C(C)=O)c2)cc1 | – | inactive: -27.2%

Row | Compound | Potency | activity change, negative = growth inhibition
49 | Cc1nc(-c2ccc(C(F)(F)F)cc2)sc1C(=O)NN | inconclusive: 18.4 µM [inhibitor, single point] | –
50 | COc1ccc(C(CCN2CCOCC2)c2c(O)cc(OC)cc2OC)cc1 (stereo not given) | inconclusive: 29.1 µM [inhibitor, single point] | –
51 | CCOC(=O)c1c(C)sc2c1N(C(=O)CCl)c1cc(Cl)ccc1S2 | active: 4.11 µM | –
52 | c1cncc(OC2CCN(Cc3ccc4c(c3)CN(Cc3ccc5c(c3)CCO5)CCO4)CC2)c1 | active: 18.4 µM | –
53 | COc1ccc2c(c1)OC[C@H]1[C@H]2N2C(=O)c3cc(OC)c(OC)cc3NC(=O)[C@@]2(C)[C@H]1c1ccccc1 | active: 16.4 µM | –
54 | COC(=O)c1cc(S(=O)(=O)NCC2CCN(Cc3cc(C)ccc3C)CC2)c[nH]1 | inconclusive: 11.6 µM [inhibitor, single point] and inconclusive: 23.1 µM [inhibitor, single point] | –
55 | COc1ccc(-c2cn3c(n2)sc2cc(C(=O)NCc4ccccc4OC)ccc23)cc1 | inconclusive: 11.6 µM [inhibitor, single point] | –
56 | Cn1c(CC(=O)Nc2ccccc2)cc2ccccc21 | inconclusive: 10.3 µM [inhibitor, partial curve] | –
57 | O=C(O)C(Cc1ccc(OS(=O)(=O)Cc2ccccc2)cc1)NS(=O)(=O)Cc1ccccc1 (stereo not given) | – | inactive: -6.2%
58 | COc1ccccc1Nc1nn2c(=O)c3ccc(C(=O)NCc4cccs4)cc3nc2s1 | active: 16.4 µM | –
59 | COc1ccc(CNC(=O)COC(=O)c2sccc2C)cc1OC | – | inactive: -4.33%
60 | CC(=O)C1=CCC(c2ccccc2)N(S(=O)(=O)c2ccccc2)C1 (stereo not given) | active: 18.4 µM | –
61 | Cc1nn(C(C)C)c(C)c1CN1CCC(C(=O)Nc2cccc(-c3cccc(F)c3)c2)CC1 | inconclusive: 23.1 µM [inhibitor, single point] | –
62 | C/C(Cl)=C\Cn1c(NCCCn2ccnc2)nc2c1c(=O)n(C)c(=O)n2C | inconclusive: 20.6 µM [inhibitor, single point] | –
63 | O=C(NCCC(=O)N1CCN(C(=O)c2ccco2)CC1)c1ccc(Br)cc1 | – | inactive: -8.98%
64 | CN(C(=O)CCOc1ccccc1)c1c(N)n(Cc2ccccc2)c(=O)[nH]c1=O | – | inactive: 11.4%
65 | COCc1nnc(NC(=O)c2ccc(S(=O)(=O)N3CCCCCC3)cc2)o1 | inconclusive: 29.1 µM [inhibitor, single point] | –
66 | CCOC(=O)C1(CCOc2ccccc2)CCN(Cc2cccs2)CC1 | inconclusive: 11.6 µM [inhibitor, partial curve, poor fit] | –
67 | COc1ccccc1-c1nc(C#N)c(N2CCN(C(c3ccccc3)c3ccccc3)CC2)o1 | active: 23.1 µM | –
68 | O=C(N/N=C/c1ccc(Cl)cc1)c1cc(-c2cccnc2)nc2ccccc12 | active: 7.31 µM | –
69 | S=c1nc(-c2ccco2)[nH][nH]1 | – | inactive: -10.3%
70 | Fc1ccc(CN2CCN(C(c3ccccc3)c3ccccc3)CC2)cc1 | inconclusive: 23.1 µM [inhibitor, single point] | –
